Assay results: patent US20120283182A1

Molecular target: 'd' subunit of F1Fo ATP synthase (dF1Fo) (rat) (UniProt P31399)
Experiment: cell-based or functional assay

UniProt P31399, sequence (P31399 2-161 limits assumed): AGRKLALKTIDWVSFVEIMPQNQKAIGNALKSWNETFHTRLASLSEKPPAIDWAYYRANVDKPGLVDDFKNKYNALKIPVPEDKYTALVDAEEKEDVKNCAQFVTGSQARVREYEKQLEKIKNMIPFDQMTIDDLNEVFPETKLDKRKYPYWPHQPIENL

inhibition of basal oligomycin-sensitive F1Fo ATPase activity in NCMs (hypoxia): 79%
Substance: delta protein kinase C (δPKC) (from UniProt P09215 1-673) (enzyme)
